Test results as given in PubChem BioAssay AID488969 (Vanderbilt High Throughput Screening Facility, 2010).
In all, about 110,000 compounds were measured (“z-score”: median about -0.1, highest 2% from about 2 on). This is one part of the list. The source made the active and inactive calls.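 The calls were made as follows: active = z-score in the third read window above 3 or below -3; inactive = the rest.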

Biological target: Metabotropic glutamate receptor 8 (Rattus norvegicus) (UniProt P70579)
Assay: mGluR8 Gi/Go-coupled signaling modulation – cell-based, rat, thallium flux, HTS, primary screen (AID 488969)
Conditions: HEK293 rat mGluR8, GIRK (G protein-gated inwardly rectifying potassium channel) thallium flux, FluoZin2; at 10 µM; stronger effect = higher value; submaximal glutamate (EC20) added with thallium

Chain of UniProt P70579 (P70579 whole entry, looked up): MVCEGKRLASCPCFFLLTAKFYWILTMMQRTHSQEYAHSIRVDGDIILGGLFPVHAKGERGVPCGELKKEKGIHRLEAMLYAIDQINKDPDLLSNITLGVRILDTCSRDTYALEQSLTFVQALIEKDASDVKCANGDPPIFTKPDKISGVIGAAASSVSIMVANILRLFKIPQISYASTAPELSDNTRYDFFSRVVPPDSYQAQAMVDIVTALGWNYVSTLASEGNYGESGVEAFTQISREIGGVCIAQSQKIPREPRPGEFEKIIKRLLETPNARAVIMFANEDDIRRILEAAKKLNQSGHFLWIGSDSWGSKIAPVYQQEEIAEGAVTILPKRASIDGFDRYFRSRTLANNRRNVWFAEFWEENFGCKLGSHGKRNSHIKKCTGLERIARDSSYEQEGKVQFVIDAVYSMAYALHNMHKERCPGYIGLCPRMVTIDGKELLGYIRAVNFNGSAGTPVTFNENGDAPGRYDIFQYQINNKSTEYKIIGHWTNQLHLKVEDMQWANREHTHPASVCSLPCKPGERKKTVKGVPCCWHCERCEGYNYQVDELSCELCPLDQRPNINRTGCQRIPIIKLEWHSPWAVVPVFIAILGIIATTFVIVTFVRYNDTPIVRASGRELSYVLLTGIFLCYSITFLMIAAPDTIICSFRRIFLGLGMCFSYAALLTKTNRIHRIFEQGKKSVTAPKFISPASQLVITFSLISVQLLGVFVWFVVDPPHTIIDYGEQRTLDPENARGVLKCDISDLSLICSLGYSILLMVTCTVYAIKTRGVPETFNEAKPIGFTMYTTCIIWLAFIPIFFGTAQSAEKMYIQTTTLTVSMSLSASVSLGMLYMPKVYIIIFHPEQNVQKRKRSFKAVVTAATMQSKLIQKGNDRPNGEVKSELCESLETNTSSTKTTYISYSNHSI

SMILES | z-score
Cn1cnnc1SC1c2cccc3cccc(c23)C1NS(=O)(=O)c1ccccc1 (stereo not drawn) | -0.0157
COc1cc(CN(C(=S)NCC(=O)NC2CCCC2)C2CCCC2)cc(OC)c1OC | -0.312
Cc1ccccc1/C(N)=N/O | 0.264
Cc1ccc(Nc2cc(C)nc(NCc3ccccc3)n2)cc1 | -0.326
Oc1ccc(NCc2ccccc2OCc2ccccc2)cc1 | -0.381
CC1CCN(S(=O)(=O)c2cc(C(=O)N3CCN(c4ncccn4)CC3)ccc2Br)CC1 | -0.827
O=C(COC(=O)c1cc(S(=O)(=O)N2CCOCC2)ccc1O)NCC1CCCO1 (stereo not drawn) | -0.227
Cn1cccc1/C=N/N1CCN(c2ccccn2)CC1 | -0.18
CCc1c(C(=O)Nc2cc(C)cc(C)c2)[nH]c(C)c1C(C)=O | -0.0314
COc1ccc(-n2nnc3c(=O)n(CC(=O)NCC4CCCO4)cnc32)cc1 (stereo not drawn) | -0.0531
Cc1nnc(SCC(=O)Nc2ccc3c4c(cccc24)CC3)n1C | 0.0857
COc1ccc(NC(=O)c2ccc(Cc3ccc(C)cc3)o2)cc1 | -1.25
CCCCN(C(=O)Cc1cccs1)c1nnc(-c2cccnc2)s1 | 1.24
COc1ccc(-c2cc(C3CCN(c4cc(Cl)nc(N)n4)CC3)[nH]n2)cc1 | -0.176
CCN1CCc2c(OCC(=O)N3N=C(c4cccs4)CC3c3ccc(F)cc3)cccc2C1=O (stereo not drawn) | -0.882
Cc1cnc(NC(=O)CSc2ncc(-c3ccccc3)n2Cc2ccco2)s1 | 0.413
O=C(NNC(=S)Nc1cccc(Cl)c1)c1ccccc1OC(F)F | 1.37
CCOC(=O)C1=C(SCC)c2cc3c(n2C1=O)CCCC3 | -1.93
CCCCN(C)C(=O)CSc1nc(NCc2ccc(OC)cc2)c2ccccc2n1 | -1.19
CC(C)CCNC(=O)Cn1c2c(c(-c3ccccc3Cl)cc1=O)CCC2 | -0.0568
CC(O)(CS(=O)(=O)Cc1ccccc1)C(=O)Nc1ccc(C(F)(F)F)cc1 (stereo not drawn) | -0.407
CN(C)S(=O)(=O)N(CC(=O)Nc1ccccc1F)c1ccccc1 | 0.148
Cc1cc(C)c2oc(-c3ccc(C)c(NC(=S)NC(=O)/C=C/c4ccco4)c3)nc2c1 | -0.0423

SMILES | z-score
CCc1cc2c(=O)n(-c3ccc(Br)cc3)cnc2s1 | 0.212
CN(C)/C=C/C(=O)c1cccc(Cl)c1 | -0.138
CCCCCNC(=O)Cc1cc(=O)[nH]c(=O)[nH]1 | 0.717
CCOc1ccc(-c2cc(C(=O)N3CCN(c4ccccn4)CC3)c3ccccc3n2)cc1 | -0.154
O=S(=O)(c1cccc(-c2nn3c(-c4ccncc4)nnc3s2)c1)N1CCOCC1 | -0.408
O=c1cc(-c2ccccc2)nc(N2CCN(Cc3ccccc3)CC2)[nH]1 | -0.524
Cc1cc(C(=O)c2ccccc2)nc2ccccc12 | -0.16
Cc1cccc(C)c1NC(=O)CCCSc1nnc(-c2ccc(Cl)cc2)n1-c1ccccc1 | -0.454
O=C(NCc1ccco1)C(c1ccccc1)N(C(=O)Cc1cccs1)c1ccccc1 (stereo not drawn) | -0.0636
CN1C(=O)C(O)(CC(=O)c2cccc(-n3cccc3)c2)c2ccccc21 (stereo not drawn) | -0.617
COc1cccc(NC(=O)COC(=O)/C=C/c2ccc(Cl)cc2Cl)c1 | 1.31
CC(/C=C/c1ccccc1)=N\Nc1nc(-c2ccccc2)cs1 | -0.00883
COc1ccc(NC(=O)c2cc(-c3cccnc3)nc3ccc(C)cc23)cc1OC | -0.00287
O=C(/C=C/c1cccs1)Nc1cccnc1 | 0.00312
CC(C)c1ccc(NC(=O)C(c2ccccc2)N2CCC3(CC2)OCCO3)cc1 (stereo not drawn) | -0.627
CC(=O)c1cccc(NC(=O)N2CCCC2C(=O)NCCc2ccccc2)c1 (stereo not drawn) | 1.26
C=CCn1c(SCC(=O)Nc2nc(C)cs2)nnc1C(NC(=O)c1ccccc1)C(C)C (stereo not drawn) | -0.121
CCOc1ccc2sc(NS(=O)(=O)c3ccc(OC)c(OC)c3)nc2c1 | -0.157
COc1cc(NS(=O)(=O)c2ccc(NC(=O)C3CCCO3)cc2)nc(OC)n1 (stereo not drawn) | -0.159
Cc1cccc(C(=O)NC(NCCc2ccccc2)C(Cl)(Cl)Cl)c1 (stereo not drawn) | -0.429
Cc1ccc(/C(O)=C2/C(=O)C(=O)N(Cc3ccco3)C2c2cccs2)cc1 (stereo not drawn) | -1.56
CC(C)CCNC(=O)c1ccc(CSCc2cccc(F)c2)o1 | active: -3.86
Cc1ccc(C)n1-n1c(C)nc2sc(-c3ccccc3)cc2c1=O | -0.0272

SMILES | z-score
Cc1nn(C)c(C)c1/C=N/N=C1\CCC2C3CCc4cc(O)ccc4C3CCC12C (stereo not drawn) | -0.0291
COc1ccc(N=C2SC(CC(=O)Nc3cccc(Cl)c3)C(=O)N2Cc2ccco2)cc1 (stereo not drawn) | -0.175
COC(=O)c1ccc(COC(=O)CNC(=O)c2ccc(-c3ccccc3)cc2)cc1 | -0.148
CCC(=O)OCCCCCCOc1ccc(C(=O)O)cc1 | 0.0999
CCOC(=O)C1CCCCN1Cc1cc(Cl)ccc1O (stereo not drawn) | 0.343
O=C(Nc1nc2ccccc2s1)C1CC(=O)N(c2ccccc2)C1 (stereo not drawn) | -0.411
Cn1c(SCC(=O)NC(=O)NCc2ccco2)nnc1C(F)(F)F | -0.0751
Cc1cc(C)nc(SCc2ccc(C(=O)NN=C3C4CC5CC(C4)CC3C5)cc2)n1 | -0.0309
CCOC(=O)N1CCN(C(=O)c2cnc3n(c2=O)CCS3)CC1 | -0.303
CC12CCC(C(=O)N(CC(O)CN3CCCCC3)C1=O)C2(C)C (stereo not drawn) | 0.169
CCOc1nc(Nc2ccc(F)cc2)nc(N2CCN(c3ccc(OC)cc3)CC2)n1 | -0.152
CN(C)C(=O)CCN1CCOCC1 | -0.281
CCN(CC)S(=O)(=O)c1ccc(-c2nnc(SCc3nnc(-c4ccc(C)cc4)o3)o2)cc1 | -0.481
COc1ccc(S(=O)(=O)NC(C)C(=O)Nc2cccc([N+](=O)[O-])c2)cc1 (stereo not drawn) | -0.197
Cc1ccc(C)c(Nc2c([N+](=O)[O-])cc(C(=O)N3CC(=O)Nc4ccccc43)cc2[N+](=O)[O-])c1 | active: 4.62
COC(=O)C1=C(N)Oc2cc(C)n(Cc3ccccc3)c(=O)c2C1c1ccccc1 (stereo not drawn) | -0.192
COc1ccc(Cl)cc1NC(=O)CCN1CCN(C)CC1 | -0.0198
Cc1ccc(-c2nc(NC(=O)c3nn(C)cc3[N+](=O)[O-])sc2C)cc1 | -0.0697
CCC(C)(C)n1nnnc1C(c1ccc(C)cc1)N1CCN(Cc2cccnc2)CC1 (stereo not drawn) | 0.0158
Cc1ccc(NCc2ccccc2OCc2ccccc2F)cc1 | -0.0589
CCC(C)NS(=O)(=O)c1ccc(NC(=O)CCC2CCCCC2)cc1 (stereo not drawn) | -0.213
COc1ccc(CCC(=O)N2CC(C)OC(C)C2)cc1 (stereo not drawn) | -0.365
